In ChEMBL document CHEMBL4888484, “Replenishing the malaria drug discovery pipeline: Screening and hit evaluation of the MMV Hit Generation Library 1 (HGL1) against asexual blood stage Plasmodium falciparum ,using a nano luciferase reporter read-out” (2022):
Out of some 150,000 compounds screened, about 540 (0.36%) showed an effect of 50% or more. This is one part of the list.

What follows are compounds tested on Plasmodium falciparum (assay: Primary screen in NF54 nanoGlo assay, in single point, at 2uM, 72h; a lower Z score goes with more inhibition). Settings: timepoint 72 hour.
Type: functional, Erythrocyte

Row | SMILES | % Inhibition [%] | Z score
1 | N#CC1(C(=O)N2Cc3ccccc3C2)CCCC1 | -15 | 1.72
2 | Cc1ccc(Cl)c(S(=O)(=O)N[C@@H](C)c2nccs2)c1 | -6 | 0.8
3 | C[C@@H](c1cccnc1)N(C)CC(=O)N1CCNC1=O | 1 | -0.17
4 | COc1ccc(S(=O)(=O)C2CN(C(C)=O)C2)cc1 | -17 | 2.16
5 | CC(C)CC(=O)N(Cc1c(-c2ccccc2F)noc1N1CCOCC1)C[C@H]1CCCO1 | 6 | -0.69
6 | O=C1CN(Cc2ccccc2O)C(=O)N1c1ccncc1 | -1 | 0.06
7 | CCCCc1ccc(-n2c(NS(=O)(=O)c3ccc(Cl)cc3)c(S(=O)(=O)c3ccc(C)cc3)c3nc4ccccc4nc32)cc1 | 4 | -0.41
8 | O=C(Cn1cnnn1)N1CCc2ccccc2C1 | 0 | 0.03
9 | O=C1CCC2(CCN(C(=O)c3ncccc3O)CC2)CN1CCc1ccncc1 | -6 | 0.73
10 | Fc1cc(-c2cn(CCOc3ccccc3)nn2)cc(F)c1F | -13 | 2.59
11 | CCn1cc(C(=O)NC[C@H]2CCN(Cc3sccc3C)C2)cn1 | 2 | -0.35
12 | Cc1nc(NC(=O)c2cc3ccccc3cc2OC(F)F)nn1C | -1 | 0.22
13 | CCc1nnc(NC(=O)NC2CCOC(c3ccccc3)C2)s1 (stereo not given) | -9 | 1.21
14 | Cc1noc(C)c1CCNC(=O)c1cc2n(n1)C[C@@](C)(C(=O)NCc1ccc(F)cc1)N(C)C2=O | -5 | 0.81
15 | COc1ccc(NC(=O)[C@@H]2CC[C@H](NC(=O)Cc3ccncc3)C2)cn1 | -4 | 0.81
16 | O=C(Nc1ccccc1OC[C@H]1CCCO1)c1cc(=O)nc2sccn12 | -11 | 1.47
17 | COc1ccccc1OC[C@H](C)NC(=O)NC1(C)CCC1 | -4 | 0.84
18 | CN(Cc1cccnc1)[C@@H](C(=O)O)c1ccc(NC(=O)N2CCCC2)cc1 | -2 | 0.3
19 | O=C(O)C[C@H](NC(=O)CCc1ccccc1Cl)C1CC1 | -6 | 0.86
20 | CS(=O)(=O)CCOc1ccc(Cl)cc1N | 11 | -1.39
21 | CNC(=O)[C@@H]1CN(C(=O)c2ccc(Cl)s2)C[C@H]1c1nc(COC)no1 | -9 | 1.38
22 | COc1ccc(-c2cc(-c3ccc(Cl)cc3)nc3c(C(=O)Nc4ccc(F)cc4)cnn23)cc1 | -3 | 0.38

Row | SMILES | % Inhibition [%] | Z score
23 | CC(C)(C)OC(=O)N1CC(CNCc2ccc(Cl)c(Cl)c2)C1 | 6 | -0.58
24 | Cc1ccc(N(C)C(C)C)c(C(=O)NC[C@H]2CCC3(CCOCC3)O2)c1 | -1 | 0.19
25 | CN(CC(=O)NC1CCCCCC1)Cc1cnn(C)c1 | -8 | 1.15
26 | CS(=O)(=O)CC1(CO[C@H]2CCCc3c[nH]nc32)CC1 | -14 | 1.54
27 | COc1ccc(C(C)(C)C)cc1S(=O)(=O)NC(C)C | -9 | 1.47
28 | COCCN1CCC[C@@](O)(CN2CCc3[nH]c4c(C)cccc4c3C2)C1=O | 0 | 0
29 | CCC(=O)N1CCN(C(=O)OC(C)(C)C)[C@@H](C)C1 | -11 | 1.58
30 | Cc1ccc2c(Nc3cccc(Cl)c3)c(C(=O)N3CCOCC3)cnc2n1 | -2 | 0.25
31 | C=CCn1cc(CN[C@@H](C)CCc2ccco2)c(C)n1 | -1 | 0.11
32 | CC(C)c1nnc(CNC(C)(C)c2ccc(F)cc2)o1 | -2 | 0.47
33 | O=C(c1ccncc1F)N1CC2CC1CO2 (stereo not given) | -9 | 1.63
34 | CS(=O)(=O)CCCC(=O)N1CCOc2ccccc2[C@@H]1CO | 9 | -1.61
35 | Cc1cccnc1CN1CCC[C@H](N(C)Cc2ncccc2C)CC1 | 1 | -0.14
36 | O=C(O)C1CCN(C(=O)C2CCCc3ccccc32)C1 (stereo not given) | 1 | -0.08
37 | O=C1N[C@@H](CC(=O)N2CCN(S(=O)(=O)N3CCCCCC3)CC2)C(=O)Nc2ccccc21 | -7 | 0.96
38 | CCNC(=O)[C@H](C)NS(=O)(=O)c1csnc1-c1ccccc1 | 8 | -0.92
39 | CCc1noc([C@H](C)N(C)Cc2nc3ccccc3s2)n1 | -15 | 1.92
40 | CCc1ccc(CNC(=O)c2ccc(-c3nc(CCN(C)C(=O)Nc4cccc(C)c4)no3)cc2)cc1 | 7 | -0.73
41 | COC1CCN(C(=O)CCc2c(C)[nH]c(=O)c(C#N)c2C)CC1 | -3 | 0.24
42 | Cc1cc(C(=O)NCC2(c3ccccc3)CC2)n(C)n1 | 7 | -0.66
43 | Cc1ccc(C)c(-c2cnc3sc(C)nc3c2)c1 | -5 | 0.68
44 | CCC(CC)n1ncc(C)c1NC(=O)N(C)CC1(CO)CCOCC1 | -18 | 1.98

Row | SMILES | % Inhibition [%] | Z score
45 | Cc1nc(O)cc(C2CCN(C(=O)Nc3ccc4c(c3)C[C@H](C)O4)CC2)n1 | 1 | -0.14
46 | O=C(Cn1cc2c(n1)CCCCC2)NCCc1ccc(Cl)cc1 | -12 | 2.35
47 | O=S(=O)(Cc1ccccc1)N(O)c1ccccc1 | 22 | -2.51
48 | CC(C)[C@H](NCCC(=O)c1ccc(Br)cc1)C(=O)O | -13 | 2.47
49 | Cc1[nH]ncc1CCCN[C@H]1CCCCC12CCCCC2 | 0 | 0.02
50 | NC(=O)N1CCCN(c2nccc3cc(C(F)(F)F)ccc23)CC1 | -5 | 0.88
51 | Cc1ccc(C(=O)N[C@H]2CC(=O)N(Cc3cccc4ccccc34)C2)c(=O)[nH]1 | 1 | -0.19
52 | Cc1cccn2c(=O)cc(COc3ccccc3)nc12 | -10 | 1.4
53 | CN(C)S(=O)(=O)N1CCC2(CC1)OC(=O)c1ccccc12 | -13 | 1.62
54 | Cc1nn(C(F)F)cc1-c1ccc(C(=O)N[C@H]2CCCC[C@@H]2O)cc1 | 1 | -0.28
55 | CCN(C(=O)c1cc(Br)c[nH]1)c1ccc(OC)nc1 | 1 | -0.18
56 | Cc1noc(C2CCN(C(C)c3ncc(C)o3)C2)n1 (stereo not given) | -19 | 3.76
57 | CC(C)(C)N(CC(N)=O)CC(=O)NC(=O)NC1CCCCC1 | 31 | -0.73
58 | O=C(c1c[nH]c2ccccc12)C(O)C(c1ccccc1)N1CCN(c2ccccc2)CC1 (stereo not given) | -9 | 1.02
59 | CC(=O)c1cccc(OS(=O)(=O)c2ccc(N3CCCC3=O)cc2)c1 | 5 | -0.69
60 | CCNC(=O)[C@H]1CCN(c2noc(CC)n2)C1 | 4 | -0.51
61 | CN(CCCN1CCOCC1)S(=O)(=O)c1cccnc1 | -15 | 1.96
62 | O=C(COc1ccc(CO)cc1)N[C@H]1CCC[C@H]1F | -11 | 1.44
63 | Cc1ccc(-c2noc([C@H]3CC(=O)N(c4ccc5c(c4)OCCO5)C3)n2)cc1 | -10 | 1.07
64 | CN(C)c1ccc(C(=O)Nc2ccccc2-c2cn3c(n2)CCCC3)nn1 | -10 | 1.93
65 | O=C(Nc1ccc(N2CCN(C(=O)c3ccco3)CC2)c(Cl)c1)c1ccc2c(c1)OCCO2 | -23 | 2.57
66 | O=C(N[C@H]1CCN(CCCc2ccccc2)C1=O)c1ccncc1F | 9 | -1.66

Row | SMILES | % Inhibition [%] | Z score
67 | CN(C)c1cc(C(=O)OCc2ccc(Cl)cc2)ccn1 | 2 | -0.2
68 | Cc1cc(C)c(CN2CCC(C)CC2)cc1CNCc1csc(N)n1 | 6 | -1.06
69 | Cc1noc(CNC(=O)Nc2cc(C(C)C)on2)n1 | -9 | 1.19
70 | CCC(=O)NCc1ccc(-c2noc(C3(c4ccc(OC)cc4)CC3)n2)s1 | -3 | 0.46
71 | CCC(=O)N1CCN(C(=O)c2scnc2C(C)C)C1 | -1 | 0.29
72 | Cc1ccc(S(=O)(=O)N2CCN(C(=O)NCc3nccn3C)CC2)cc1 | -12 | 2.31
73 | Cc1[nH]ncc1C(=O)Nc1ccc(NC2CCOCC2)cc1 | -7 | 1.39
74 | O=C(O)C1CCCN1C(=O)[C@H]1CC[C@H](c2ccccc2)C1 (stereo not given in full) | -5 | 0.94
75 | COc1cc([C@H]2CC(=O)Nc3c2cnn3Cc2ccccc2Cl)ccc1O | 8 | -0.93
76 | O=C(c1ccc(N2C[C@@H]3c4ccccc4OC[C@]3(CO)C2)nc1)N1CCCC1 | -18 | 3.13
77 | Cc1c(S(=O)(=O)Nc2ccc(F)cc2)cc(-c2nc(-c3ccc(F)cc3)cs2)n1C | -14 | 2.07
78 | CS(=O)(=O)c1ccc(NCc2ccc3c(c2)CNC3)c(F)c1 | -16 | 3.2
79 | CC(=O)N[C@H]1CN(c2nc(C)ccc2C(=O)O)C[C@@H]1c1ccc(C)cc1 | 4 | -0.56
80 | CC[C@H](C)NC(=O)Cn1nc2cc(C)nc(N3CCc4ccccc4C3)n2c1=O | -9 | 1.4
81 | CCCc1nc(CNc2cccc(CS(C)(=O)=O)c2C)cs1 | 3 | -0.34
82 | N#Cc1ncn(Cc2nc3cc(C(F)(F)F)ccc3o2)c1C#N | 8 | -0.78
83 | O=C(CCc1nnc(CCCCc2ccccc2)o1)N1CCCC[C@H]1c1ccc(F)cc1 | -5 | 0.71
84 | COc1ccc(/C=C/c2cc(C(F)(F)F)[nH]c(=O)n2)cc1 | -7 | 1.08
85 | Cn1cc(N2CCN(c3ncc(F)cn3)CC2)cn1 | -13 | 1.28
